Assay results reported in paper PMC12900513.
No constants are given. Whether binding was seen depends on the method and setting. In cells and extracts the contact can be indirect. Some results given as binding are weak or reduced against the parent protein; the word gives no strength. For part of these data: Tags and fused reporters may be left off the sequences shown.

Chains of the proteins cited; added tags and fusions are not shown. Lines headed by an entry give the natural chain unless they say otherwise; changes in a name come on top. Residues count along the entry.
UniProt P98161: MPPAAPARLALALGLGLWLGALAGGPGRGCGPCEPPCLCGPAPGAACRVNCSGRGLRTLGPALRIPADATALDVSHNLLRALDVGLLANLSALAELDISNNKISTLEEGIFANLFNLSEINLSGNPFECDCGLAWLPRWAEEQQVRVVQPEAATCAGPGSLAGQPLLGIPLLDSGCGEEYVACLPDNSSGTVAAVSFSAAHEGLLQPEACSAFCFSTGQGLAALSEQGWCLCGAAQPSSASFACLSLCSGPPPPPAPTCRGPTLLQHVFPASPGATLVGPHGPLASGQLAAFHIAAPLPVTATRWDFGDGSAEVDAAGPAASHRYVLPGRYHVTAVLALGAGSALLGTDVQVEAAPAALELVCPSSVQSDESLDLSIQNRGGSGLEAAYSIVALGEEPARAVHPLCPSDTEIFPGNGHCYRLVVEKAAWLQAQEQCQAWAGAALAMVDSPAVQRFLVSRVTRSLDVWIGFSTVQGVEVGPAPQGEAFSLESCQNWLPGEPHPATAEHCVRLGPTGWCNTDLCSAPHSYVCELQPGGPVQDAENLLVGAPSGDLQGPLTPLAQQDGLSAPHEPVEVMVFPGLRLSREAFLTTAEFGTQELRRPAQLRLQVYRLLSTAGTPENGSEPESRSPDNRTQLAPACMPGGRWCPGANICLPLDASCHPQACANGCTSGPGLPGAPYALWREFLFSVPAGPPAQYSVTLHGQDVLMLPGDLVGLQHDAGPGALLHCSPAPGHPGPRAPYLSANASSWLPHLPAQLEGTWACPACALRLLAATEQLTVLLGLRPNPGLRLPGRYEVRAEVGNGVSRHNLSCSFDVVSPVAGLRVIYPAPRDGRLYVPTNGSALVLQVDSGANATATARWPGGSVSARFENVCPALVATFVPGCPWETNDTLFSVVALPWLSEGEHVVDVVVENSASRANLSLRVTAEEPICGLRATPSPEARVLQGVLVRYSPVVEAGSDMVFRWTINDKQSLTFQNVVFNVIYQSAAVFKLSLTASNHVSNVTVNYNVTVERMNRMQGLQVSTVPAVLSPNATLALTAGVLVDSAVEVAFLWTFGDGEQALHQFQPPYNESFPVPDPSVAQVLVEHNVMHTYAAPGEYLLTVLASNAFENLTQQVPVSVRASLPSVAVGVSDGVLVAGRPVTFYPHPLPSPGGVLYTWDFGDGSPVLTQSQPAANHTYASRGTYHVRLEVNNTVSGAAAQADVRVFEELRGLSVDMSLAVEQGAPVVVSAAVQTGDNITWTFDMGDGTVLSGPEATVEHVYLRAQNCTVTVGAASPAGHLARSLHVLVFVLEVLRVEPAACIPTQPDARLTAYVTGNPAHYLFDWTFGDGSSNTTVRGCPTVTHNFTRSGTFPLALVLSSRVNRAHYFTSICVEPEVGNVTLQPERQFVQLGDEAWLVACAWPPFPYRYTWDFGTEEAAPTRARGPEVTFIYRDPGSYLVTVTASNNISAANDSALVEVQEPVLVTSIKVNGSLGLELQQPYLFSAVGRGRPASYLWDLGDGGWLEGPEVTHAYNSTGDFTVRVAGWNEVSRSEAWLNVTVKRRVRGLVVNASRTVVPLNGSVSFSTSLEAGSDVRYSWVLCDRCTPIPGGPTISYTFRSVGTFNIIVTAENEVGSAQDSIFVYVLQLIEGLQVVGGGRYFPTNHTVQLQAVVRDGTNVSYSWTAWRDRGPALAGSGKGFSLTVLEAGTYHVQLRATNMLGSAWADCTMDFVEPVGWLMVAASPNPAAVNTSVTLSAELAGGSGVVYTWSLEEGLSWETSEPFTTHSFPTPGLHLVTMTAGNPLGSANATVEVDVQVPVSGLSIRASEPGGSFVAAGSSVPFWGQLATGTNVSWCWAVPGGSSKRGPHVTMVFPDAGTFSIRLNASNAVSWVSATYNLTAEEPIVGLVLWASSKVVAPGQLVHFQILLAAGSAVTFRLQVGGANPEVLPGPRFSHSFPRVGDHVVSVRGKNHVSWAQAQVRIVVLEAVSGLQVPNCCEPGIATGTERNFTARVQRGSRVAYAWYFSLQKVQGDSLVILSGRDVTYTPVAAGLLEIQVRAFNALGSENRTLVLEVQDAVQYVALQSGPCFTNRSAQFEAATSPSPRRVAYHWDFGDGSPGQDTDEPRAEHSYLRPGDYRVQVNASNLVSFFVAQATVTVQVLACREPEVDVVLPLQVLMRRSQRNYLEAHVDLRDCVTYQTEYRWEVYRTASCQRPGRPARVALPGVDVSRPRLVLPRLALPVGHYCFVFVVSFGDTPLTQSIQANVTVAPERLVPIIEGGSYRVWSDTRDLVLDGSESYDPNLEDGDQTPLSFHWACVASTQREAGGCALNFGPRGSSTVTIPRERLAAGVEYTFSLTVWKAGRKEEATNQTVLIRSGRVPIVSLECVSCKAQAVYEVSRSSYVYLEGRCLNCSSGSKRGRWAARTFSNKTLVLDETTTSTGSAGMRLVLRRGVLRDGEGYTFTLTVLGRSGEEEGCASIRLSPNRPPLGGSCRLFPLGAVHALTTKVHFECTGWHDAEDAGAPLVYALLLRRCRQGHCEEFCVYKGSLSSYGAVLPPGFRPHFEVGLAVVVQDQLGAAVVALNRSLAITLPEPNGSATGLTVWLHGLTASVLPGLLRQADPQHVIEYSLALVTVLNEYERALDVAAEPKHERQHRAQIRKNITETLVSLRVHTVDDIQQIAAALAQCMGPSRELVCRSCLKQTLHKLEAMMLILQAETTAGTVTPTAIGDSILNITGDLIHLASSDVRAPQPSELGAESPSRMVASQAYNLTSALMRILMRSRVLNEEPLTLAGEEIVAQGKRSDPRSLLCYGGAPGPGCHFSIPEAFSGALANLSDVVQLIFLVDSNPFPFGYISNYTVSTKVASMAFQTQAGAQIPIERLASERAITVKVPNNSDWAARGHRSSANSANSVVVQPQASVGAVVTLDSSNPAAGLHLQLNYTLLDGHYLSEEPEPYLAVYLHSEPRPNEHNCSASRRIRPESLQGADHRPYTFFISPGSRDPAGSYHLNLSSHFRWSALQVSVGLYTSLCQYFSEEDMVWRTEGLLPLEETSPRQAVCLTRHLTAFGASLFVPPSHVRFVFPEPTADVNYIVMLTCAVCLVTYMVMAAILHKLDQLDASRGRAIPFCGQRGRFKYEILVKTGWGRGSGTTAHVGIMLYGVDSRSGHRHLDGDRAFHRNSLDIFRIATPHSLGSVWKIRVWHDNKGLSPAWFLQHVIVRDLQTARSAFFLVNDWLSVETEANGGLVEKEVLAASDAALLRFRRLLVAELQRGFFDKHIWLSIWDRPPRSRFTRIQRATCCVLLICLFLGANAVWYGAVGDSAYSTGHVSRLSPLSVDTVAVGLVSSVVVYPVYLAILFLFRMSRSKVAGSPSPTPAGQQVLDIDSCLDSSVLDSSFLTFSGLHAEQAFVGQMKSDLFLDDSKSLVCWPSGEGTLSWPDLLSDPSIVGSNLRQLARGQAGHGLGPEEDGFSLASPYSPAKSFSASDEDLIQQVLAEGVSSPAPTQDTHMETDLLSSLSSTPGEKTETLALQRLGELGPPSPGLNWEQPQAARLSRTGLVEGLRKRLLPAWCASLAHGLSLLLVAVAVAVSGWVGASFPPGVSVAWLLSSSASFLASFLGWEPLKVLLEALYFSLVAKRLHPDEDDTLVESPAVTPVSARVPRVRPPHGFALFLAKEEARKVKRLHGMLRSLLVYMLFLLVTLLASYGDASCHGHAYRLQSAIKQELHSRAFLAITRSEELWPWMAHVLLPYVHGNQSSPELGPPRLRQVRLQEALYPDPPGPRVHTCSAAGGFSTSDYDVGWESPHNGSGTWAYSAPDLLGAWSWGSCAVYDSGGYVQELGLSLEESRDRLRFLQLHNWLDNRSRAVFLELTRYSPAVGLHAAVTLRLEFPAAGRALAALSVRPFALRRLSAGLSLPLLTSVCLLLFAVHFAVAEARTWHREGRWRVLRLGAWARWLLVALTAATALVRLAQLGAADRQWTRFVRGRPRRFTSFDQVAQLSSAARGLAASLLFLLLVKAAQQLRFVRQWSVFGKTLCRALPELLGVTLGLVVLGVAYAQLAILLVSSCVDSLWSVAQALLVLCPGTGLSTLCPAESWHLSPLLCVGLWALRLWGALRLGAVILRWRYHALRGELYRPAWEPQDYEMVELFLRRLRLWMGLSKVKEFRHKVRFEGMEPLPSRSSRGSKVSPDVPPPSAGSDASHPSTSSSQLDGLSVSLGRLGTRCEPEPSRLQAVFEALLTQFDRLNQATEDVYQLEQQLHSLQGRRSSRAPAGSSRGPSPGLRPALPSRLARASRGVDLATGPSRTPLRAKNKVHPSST
endogenous PC1 (Polycystin-1) in UCL93 cells (human (endogenous in UCL93)): residues 24-4303 of P98161
UniProt Q9H694: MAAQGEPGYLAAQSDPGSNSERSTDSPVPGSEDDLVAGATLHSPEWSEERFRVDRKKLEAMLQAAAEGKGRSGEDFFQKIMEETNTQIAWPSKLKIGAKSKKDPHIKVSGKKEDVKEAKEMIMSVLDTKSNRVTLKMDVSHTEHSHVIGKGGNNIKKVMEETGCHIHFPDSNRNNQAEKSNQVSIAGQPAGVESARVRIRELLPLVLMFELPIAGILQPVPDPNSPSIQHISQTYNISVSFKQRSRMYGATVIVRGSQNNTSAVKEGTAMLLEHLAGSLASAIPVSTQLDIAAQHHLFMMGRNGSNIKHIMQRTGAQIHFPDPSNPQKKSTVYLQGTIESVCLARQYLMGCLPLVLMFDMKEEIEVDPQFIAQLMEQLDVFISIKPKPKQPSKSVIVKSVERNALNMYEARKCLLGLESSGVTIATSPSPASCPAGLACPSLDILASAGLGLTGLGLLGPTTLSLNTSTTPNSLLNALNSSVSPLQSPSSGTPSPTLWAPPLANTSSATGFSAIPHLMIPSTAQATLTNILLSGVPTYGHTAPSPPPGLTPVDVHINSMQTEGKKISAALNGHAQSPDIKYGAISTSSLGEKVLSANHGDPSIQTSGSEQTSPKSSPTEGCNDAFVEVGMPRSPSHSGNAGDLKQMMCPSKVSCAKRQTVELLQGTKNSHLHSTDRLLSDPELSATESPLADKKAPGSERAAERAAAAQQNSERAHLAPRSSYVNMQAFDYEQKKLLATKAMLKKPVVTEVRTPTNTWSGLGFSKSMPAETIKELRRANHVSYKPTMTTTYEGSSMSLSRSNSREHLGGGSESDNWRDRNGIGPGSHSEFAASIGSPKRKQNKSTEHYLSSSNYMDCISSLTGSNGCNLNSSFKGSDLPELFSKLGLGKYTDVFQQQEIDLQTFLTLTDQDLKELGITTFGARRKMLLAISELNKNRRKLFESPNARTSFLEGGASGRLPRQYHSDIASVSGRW

What was measured:
[1] = target: endogenous PC1 (Polycystin-1) in UCL93 cells (human (endogenous in UCL93)) (UniProt P98161); test: co-IP; endogenous proteins in lysates of UCL93 human kidney epithelial cells; IP with rabbit anti-PC1 (2b7), anti-BICC1 or anti-PC2
[2] = target: T1, endogenous PC2 (Polycystin-2) in UCL93 cells (human (endogenous in UCL93)) (UniProt Q13563); test: as above
T1 sequence: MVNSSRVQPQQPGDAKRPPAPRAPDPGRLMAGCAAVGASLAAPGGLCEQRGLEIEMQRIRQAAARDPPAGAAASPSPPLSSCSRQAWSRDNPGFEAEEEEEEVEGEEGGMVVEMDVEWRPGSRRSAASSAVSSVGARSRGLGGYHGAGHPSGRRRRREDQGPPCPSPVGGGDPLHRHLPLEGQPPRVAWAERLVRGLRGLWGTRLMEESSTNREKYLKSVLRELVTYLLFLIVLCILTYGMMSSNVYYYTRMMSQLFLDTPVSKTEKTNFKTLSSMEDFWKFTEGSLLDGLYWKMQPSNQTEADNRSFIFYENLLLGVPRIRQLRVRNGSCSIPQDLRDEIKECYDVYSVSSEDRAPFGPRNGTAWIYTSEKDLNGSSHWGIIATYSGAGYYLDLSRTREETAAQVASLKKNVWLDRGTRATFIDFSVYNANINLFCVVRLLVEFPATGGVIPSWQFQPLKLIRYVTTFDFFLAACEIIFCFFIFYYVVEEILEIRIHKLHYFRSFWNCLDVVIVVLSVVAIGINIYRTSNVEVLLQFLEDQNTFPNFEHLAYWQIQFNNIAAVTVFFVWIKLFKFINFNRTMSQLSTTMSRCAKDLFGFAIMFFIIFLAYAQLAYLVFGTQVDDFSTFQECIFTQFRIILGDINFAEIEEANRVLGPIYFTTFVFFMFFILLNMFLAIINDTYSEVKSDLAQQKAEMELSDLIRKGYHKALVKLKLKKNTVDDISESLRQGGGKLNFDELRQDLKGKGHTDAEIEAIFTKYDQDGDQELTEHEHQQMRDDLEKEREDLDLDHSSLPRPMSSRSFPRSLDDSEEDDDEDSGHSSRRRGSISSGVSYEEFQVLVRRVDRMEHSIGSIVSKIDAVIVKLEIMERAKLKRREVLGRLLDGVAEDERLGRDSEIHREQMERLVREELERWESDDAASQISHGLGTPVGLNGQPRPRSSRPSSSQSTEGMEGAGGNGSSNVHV

[3] = target: T2, myc-mBicc1 IVT (in vitro translated) (mouse) (UniProt Q99MQ1); test: co-IP; in vitro binding: in vitro translated myc-mBicc1 incubated with recombinant MBP fusion proteins, IP with an anti-c-myc antibody; only the binder purified
T2 sequence: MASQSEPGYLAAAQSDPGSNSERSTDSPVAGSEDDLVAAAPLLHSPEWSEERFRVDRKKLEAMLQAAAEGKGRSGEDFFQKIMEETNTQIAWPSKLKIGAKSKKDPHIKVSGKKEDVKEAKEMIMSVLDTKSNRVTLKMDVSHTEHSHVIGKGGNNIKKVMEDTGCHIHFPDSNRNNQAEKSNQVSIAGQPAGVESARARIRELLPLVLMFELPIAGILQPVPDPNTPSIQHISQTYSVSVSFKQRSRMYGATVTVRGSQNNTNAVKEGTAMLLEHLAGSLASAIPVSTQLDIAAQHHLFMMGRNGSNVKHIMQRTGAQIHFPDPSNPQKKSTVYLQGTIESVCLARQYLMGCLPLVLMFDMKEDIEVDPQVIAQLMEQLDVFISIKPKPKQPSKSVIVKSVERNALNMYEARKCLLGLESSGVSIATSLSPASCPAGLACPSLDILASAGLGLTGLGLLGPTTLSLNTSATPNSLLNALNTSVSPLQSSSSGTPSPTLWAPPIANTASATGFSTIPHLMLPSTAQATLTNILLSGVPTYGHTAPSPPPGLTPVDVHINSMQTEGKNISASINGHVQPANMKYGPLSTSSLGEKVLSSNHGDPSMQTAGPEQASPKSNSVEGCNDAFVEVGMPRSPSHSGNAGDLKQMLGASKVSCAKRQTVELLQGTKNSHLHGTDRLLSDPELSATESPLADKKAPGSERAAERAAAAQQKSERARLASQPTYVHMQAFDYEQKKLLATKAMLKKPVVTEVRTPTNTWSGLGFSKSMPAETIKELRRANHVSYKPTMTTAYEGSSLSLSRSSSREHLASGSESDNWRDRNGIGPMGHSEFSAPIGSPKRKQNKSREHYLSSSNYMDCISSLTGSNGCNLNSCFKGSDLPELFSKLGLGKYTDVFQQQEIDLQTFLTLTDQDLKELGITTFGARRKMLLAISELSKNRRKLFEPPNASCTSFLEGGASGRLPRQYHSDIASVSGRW

[4] = target: T3, PC2-HA (full-length HA-tagged Polycystin-2) (UniProt Q13563); test: co-IP; myc-mBicc1 constructs co-expressed with HA-tagged PC1 or PC2 in HEK-293 cells; the HA-tagged protein as bait
T3 sequence: T1 sequence

| binding [4] | Substance | binding [3] | other results |
| --- | --- | --- | --- |
| – | endogenous BICC1 in UCL93 cells (from UniProt Q9H694 1-974) | – | binding [1]: binds; binding [2]: binds |
| – | MBP-CT1 (from UniProt P98161 4107-4303) (domain or fragment) | binds | – |
| binds | myc-mBicc1-ΔSAM (aa1-815) (from UniProt Q99MQ1 1-815) (domain or fragment) | – | – |
| no binding | myc-mBicc1-ΔKH (aa352-977) (from UniProt Q99MQ1 352-977) (domain or fragment) | – | – |
| – | MBP-PLAT (from UniProt P98161 3118-3223) (domain or fragment) | binds | – |
